Experimental data: PubChem BioAssay AID504332 (National Center for Advancing Translational Sciences (NCATS), 2011)
Several values for one entry are separate records, joined by “and”; a condition that tells them apart may be missing. Equal entries are not always repeated. The whole screen tested about 350,000 compounds, of which about 31,000 (8.9%) were called active. The inconclusive results got no clear call from the source; some entries with a clear call stand among them for comparison. Calls come from the whole dose curve; as a rule, active = well fitted inhibition curve with a large enough effect; inconclusive = small, poorly fitted or top-dose-only effect; inactive = no such curve, though single readings can be large or run the other way. Potencies of inconclusive entries are doubtful fits and often do not repeat. More than one record can exist for a structure, and the calls need not agree.

The molecules below were run against Histone-lysine N-methyltransferase EHMT2 (Homo sapiens) (UniProt Q96KQ7) (assay: qHTS Assay for Inhibitors of Histone Lysine Methyltransferase G9a). Conditions: G9a H3K9 monomethylation, AlphaScreen, 2 h; activity, negative = inhibition: at 59 µM (top of the series) unless noted.
Outline: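 Enzyme 20 nM + cpd, 15 min RT; add b-H3K9 pep 500 nM / SAM 20 uM; 2 h RT; anti-H3K9me1 Ab 0.5 ug/mL + SA donor / anti-rabbit acceptor beads 20 ug/mL each, 10 min; AlphaScreen read.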
% is set by controls: 0 for no effect and ±100 for the full control effect; potency is the fitted concentration of half-maximal effect; tags give direction and shape of the fitted curve.
Note: nearly all actives have a fitted effect of over 75% in size.

Sequence of UniProt Q96KQ7 (Q96KQ7 whole entry, looked up): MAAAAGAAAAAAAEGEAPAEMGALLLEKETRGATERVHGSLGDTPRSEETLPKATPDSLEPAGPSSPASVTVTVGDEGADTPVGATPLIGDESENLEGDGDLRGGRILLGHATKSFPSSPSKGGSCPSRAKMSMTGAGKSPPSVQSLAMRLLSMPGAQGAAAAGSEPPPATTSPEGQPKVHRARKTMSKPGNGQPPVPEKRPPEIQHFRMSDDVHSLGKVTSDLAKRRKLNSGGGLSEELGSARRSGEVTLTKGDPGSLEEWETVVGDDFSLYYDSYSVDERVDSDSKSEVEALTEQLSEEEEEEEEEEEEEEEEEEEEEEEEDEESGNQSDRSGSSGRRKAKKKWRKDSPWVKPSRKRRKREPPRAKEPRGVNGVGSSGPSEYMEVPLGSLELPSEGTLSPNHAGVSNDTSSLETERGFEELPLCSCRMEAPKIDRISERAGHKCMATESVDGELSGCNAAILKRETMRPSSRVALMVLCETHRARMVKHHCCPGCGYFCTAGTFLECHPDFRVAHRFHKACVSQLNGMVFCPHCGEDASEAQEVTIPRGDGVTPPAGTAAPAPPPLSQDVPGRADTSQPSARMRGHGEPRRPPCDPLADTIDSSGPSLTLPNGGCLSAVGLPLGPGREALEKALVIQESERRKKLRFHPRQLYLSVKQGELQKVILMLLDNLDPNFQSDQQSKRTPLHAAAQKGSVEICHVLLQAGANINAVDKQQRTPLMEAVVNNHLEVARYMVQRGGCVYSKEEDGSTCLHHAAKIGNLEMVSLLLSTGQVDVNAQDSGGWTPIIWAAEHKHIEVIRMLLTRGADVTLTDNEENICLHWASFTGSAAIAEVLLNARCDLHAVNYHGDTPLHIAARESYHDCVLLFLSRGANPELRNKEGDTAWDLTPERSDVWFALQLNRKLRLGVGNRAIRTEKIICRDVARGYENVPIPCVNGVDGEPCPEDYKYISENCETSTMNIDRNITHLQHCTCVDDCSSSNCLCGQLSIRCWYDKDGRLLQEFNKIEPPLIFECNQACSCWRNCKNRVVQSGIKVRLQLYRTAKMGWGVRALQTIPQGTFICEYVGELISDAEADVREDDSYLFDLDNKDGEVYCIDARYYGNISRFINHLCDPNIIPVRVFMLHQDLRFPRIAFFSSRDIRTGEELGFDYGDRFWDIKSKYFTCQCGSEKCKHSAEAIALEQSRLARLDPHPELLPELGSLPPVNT

Row | Compound | Potency | activity, negative = inhibition
1 | CC(=O)C1=C(C)NC(SCC(=O)Nc2nccs2)=C(C#N)C1c1ccccc1Cl (stereo unspecified) | inconclusive: 25.1 µM [inhibitor, single point] | 
2 | COc1ccc(C(=O)Nc2nc3c(s2)CCCC3)cc1Cl | inconclusive: 8.91 µM [inhibitor, partial curve, poor fit] | 
3 | Cc1cccc(C(=O)N2CCCCCC2)c1 | inactive | 
4 | CCOc1cccc(NC(=O)CSc2ncc(-c3ccccc3)[nH]2)c1 | active: 10 µM | 
5 | O=C(CNCCc1ccccc1)N1CCc2ccccc2C1 | active: 22.4 µM | 
6 | O=C(NC(=S)N1CCCCC1)c1cccnc1 | active: 11.2 µM | 
7 | CC1(C)Cc2c(sc(NC(=O)c3ccccc3)c2C(=O)O)CO1 | active: 44.7 µM | 
8 | Cc1ccc(S(=O)(=O)N2CCN(C(C)CC(=O)O)CC2)cc1 (stereo unspecified) | active: 28.2 µM | 
9 | CCOc1ccc(NC(=O)c2ccc3c(c2)CCN3S(=O)(=O)c2ccc(Cl)cc2)cc1 | inactive | 
10 | OCCC1CN(C2CCN(c3ccccc3)CC2)CCN1Cc1ccc(F)c(F)c1 (stereo unspecified) | inconclusive: 44.7 µM [inhibitor, partial curve, poor fit] | 
11 | COc1ccc(-n2c(C)cc(C(=O)COC(=O)Cn3cnc4ccccc43)c2C)cc1 | active: 15.8 µM | 
12 | CC(=O)NC(C)c1cc(Cl)c2cccnc2c1O (stereo unspecified) |  | inactive: 11.2% [at 0.501 µM] and inactive: 27.1% [at 12.7 µM]
13 | COc1ccc(CNC(=O)Nc2cccs2)cc1OC | active: 12.6 µM | 
14 | COc1ccc(-c2nc3c(c(SCC(=O)Nc4ccccc4F)n2)Cc2cc(C)ccc2O3)cc1 | inactive | 
15 | COc1ccccc1OCC(=O)NCCC1=CCCCC1 | inactive | 
16 | CCN(CC)CCN1C(=O)C(=O)/C(=C(/O)c2cccc(OC)c2)C1c1ccccn1 (stereo unspecified) |  | inconclusive: -83.8% [inhibitor]
17 | Cc1ccc(NC(=O)CCCc2nnc3n(C)c(=O)c4sccc4n23)cc1F | inactive | 
18 | Cc1cc(=O)[nH]c(CN2CCC(c3ccccc3)CC2)n1 |  | inactive: 9.82% [at 12.7 µM]
19 | COc1ccc(-c2cc(C(=O)N3CCN(Cc4ccccc4)CC3)no2)cc1OC |  | inconclusive: -67% [inhibitor]
20 | Cc1cc(NC(=O)NN2CCOCC2)nn1-c1c(Cl)cccc1Cl | inactive | 
21 | Cc1onc(-c2ccccc2Cl)c1C(=O)Nc1ccc(N2CCOCC2)cc1 | inconclusive: 70.8 µM [inhibitor, single point] | 
22 | O=C(c1cccc(OC2CCN(Cc3ccc(F)cc3)CC2)c1)N1CCCC1 |  | inactive: 15.9% [at 12.7 µM]
23 | O=C(Nc1ccc2c(c1)C(=O)NC2=O)c1ccccc1 | inactive | 
24 | CC(=O)Nc1ccc(S(=O)(=O)Nc2nc3ccccc3nc2N2CCc3ccccc3C2)cc1 | inactive | 
25 | O=C(C1CCCN(S(=O)(=O)c2cccc3nsnc23)C1)N1CC=C(c2ccccc2)CC1 (stereo unspecified) |  | inconclusive: -63.4% [inhibitor]
26 | CCN(CC(=O)Nc1c(F)cccc1F)C(=O)c1ccc(Cl)c(S(=O)(=O)N2CCCC2)c1 | inconclusive: 89.1 µM [inhibitor, single point] | 

Row | Compound | Potency | activity, negative = inhibition
27 | CC(=O)N1CCc2ccccc2C1CC(=O)O (stereo unspecified) | inactive | 
28 | CSc1nc(NCc2ccco2)c2sc3nc(C(C)C)c4c(c3c2n1)CC(C)(C)OC4 | inconclusive: 39.8 µM [inhibitor, single point] | 
29 | CCOC(=O)N1CCN(C(=O)c2cc(OC)c(OC)c(OC)c2)CC1 | inactive | 
30 | CCOc1ccc(S(=O)(=O)N2CCC(C(=O)OC(C)C(=O)N3CCOCC3)CC2)cc1 (stereo unspecified) | inactive | 
31 | Cc1ccc(C)c(N2CCN(C(=O)C3CCCN(Cc4nc(-c5cccc(Cl)c5)oc4C)C3)CC2)c1 (stereo unspecified) | inconclusive: 8.91 µM [inhibitor, partial curve, poor fit] | 
32 | CCCn1c(N)c(C(=O)CSc2nnc(-c3ccoc3C)n2C)c(=O)n(C)c1=O | inactive | 
33 | Cn1nc(C(=O)NCCN2CCOCC2)c2ccccc2c1=O | inconclusive: 1.41 µM [inhibitor, partial curve, poor fit] | 
34 | Cc1cc(C)cc(NC(=S)NCCc2c[nH]c3ccccc23)c1 | active: 39.8 µM | 
35 | CCSc1nc2c(c(-c3ccc(C)o3)c1C#N)CCCC2 | inconclusive: 28.2 µM [inhibitor, single point] | 
36 | Cn1c(=O)c(=O)n(C)c2cc(S(=O)(=O)N3CCCC3C(=O)NCc3cccnc3)ccc21 (stereo unspecified) | inconclusive: 79.4 µM [inhibitor, partial curve, poor fit] | 
37 | CCOC(=O)c1c(C)[nH]c(=S)c(C#N)c1-c1ccc(OC)cc1 | inconclusive: 1.78 µM [inhibitor, partial curve, poor fit] | 
38 | CC1N(C)c2cccc3cccc(c23)N1C | active: 2 µM | 
39 | CCC(C)(C(=O)NC1CCCCC1)N(Cc1ccco1)C(=O)Cc1cccs1 (stereo unspecified) | inconclusive: 8.91 µM [inhibitor, single point] | 
40 | CC(C)NC(=O)NC(=O)CN1c2cccc3cccc(c23)S1(=O)=O | active: 31.6 µM | 
41 | CSc1nc(-c2ccccc2)nc(N2CCOCC2)c1C(C)=O | inconclusive: 79.4 µM [inhibitor, partial curve, poor fit] | 
42 | COc1ccc(CCNc2nc(-c3ccc(OC)c(OC)c3)cc(C(F)(F)F)n2)cc1OC | inactive | 
43 | CCOC(=O)c1c(S(=O)(=O)N2CCCC(C(=O)NCc3cccc(OC)c3)C2)c(C)n(C)c1C (stereo unspecified) | inactive | 
44 | Cc1ccc(-c2cn(-c3cccc(Cl)c3)c(S(=O)(=O)CC(=O)Nc3cccc(C)c3)n2)cc1 | inconclusive: 3.16 µM [inhibitor, partial curve, poor fit] | 
45 | Cc1cccc(N2CCN(C(=O)CCNS(=O)(=O)c3ccc4c(c3)CCC(=O)N4)CC2)c1C |  | inconclusive: -62.4% [inhibitor]
46 | Fc1ccc(N2CCN(C3=Nc4cccc5cccc3c45)CC2)cc1 | active: 39.8 µM | 
47 | COc1ccccc1N1CCN(CC(=O)Nc2nc(C)c(C(=O)N(C)C)s2)CC1 | inactive | 
48 | Cc1ccc(N2CC(NC(=O)c3ccc(S(=O)(=O)N4CCCC4)cc3)CC2=O)cc1C (stereo unspecified) | inactive | 
49 | O=C(Nc1ccc2c(c1)OCO2)c1noc2c1CCCC2 | inconclusive: 100 µM [inhibitor, single point] | 
50 | NC(=O)CCCCn1ccc(NC(N)=NCC(F)(F)F)n1 | inactive | 
51 | O=C(O)c1cccc(NC(=O)c2ccc3c(c2)C(=O)N(c2ccccc2)C3=O)c1 | inactive | 
52 | Cc1ccc(/C=C2/SC(=Nc3ccc(F)cc3)NC2=O)s1 | inconclusive: 35.5 µM [inhibitor, partial curve, poor fit] | 

Row | Compound | Potency | activity, negative = inhibition
53 | CC(C)(C)c1cc(=O)n(-c2ccccc2)[nH]1 | active: 44.7 µM | 
54 | COc1ccc2[nH]cc(C(=O)CN(C)CCc3ccc(OC)c(OC)c3)c2c1 | inconclusive: 6.31 µM [inhibitor, single point] | 
55 | COc1ccc(CN2CCN(C(=O)CC(C)C)CC2)c2ccccc12 | inconclusive: 2.82 µM [inhibitor, partial curve, poor fit] | 
56 | COc1ccc(Cl)cc1NC(=O)CNc1ccc(F)cc1C | inconclusive: 89.1 µM [inhibitor, single point] | 
57 | O=C(N/N=C/c1ccc(F)cc1)c1cc(-c2ccco2)nc2ccccc12 | inconclusive: 7.08 µM [inhibitor, single point] | 
58 | Cc1ccc2oc(=O)c(/C=C(\O)c3ccccc3)nc2c1 | active: 7.94 µM | 
59 | COc1cccc(OC)c1C(=O)Nc1cccc(-c2cn3ccsc3n2)c1 | inactive | 
60 | Cc1ccc(NC(=O)CSc2nnc(NC(=O)C3CC3)s2)cc1 | inconclusive: 31.6 µM [inhibitor, single point] | 
61 | COc1cc(-c2cc(C(=O)NN3CCN(C)CC3)c3ccccc3n2)cc(OC)c1OC | inconclusive: 7.94 µM [inhibitor, partial curve, poor fit] | 
62 | Cc1ccc(NC(=O)NCc2cccn2Cc2ccccc2)c(C)c1 | inactive | 
63 | O=C(Cc1cccs1)N=Nc1c(O)[nH]c2ccc(Br)cc12 | inconclusive: 89.1 µM [inhibitor, partial curve, poor fit] | 
64 | CCOc1ccc(CC(=O)Nc2sc(Cc3ccccc3)c(C)c2C(N)=O)cc1OCC |  | inactive: 5.46% [at 2.33 µM]
65 | CCOC(=O)c1scc(-c2ccc(C)cc2)c1S(=O)(=O)N1CCN(c2ccccc2F)CC1 | inactive | 
66 | Cc1ccc(Cn2c(NCCCn3ccnc3)nc3c2c(=O)n(C)c(=O)n3C)cc1 | inactive | 
67 | Cc1cccc(NC(=O)C(=O)NCC(c2cccnc2)N2CCc3ccccc3C2)c1C (stereo unspecified) | inconclusive: 4.47 µM [inhibitor, partial curve] | 
68 | O=C(CSc1n[nH]c(-c2ccc(Cl)cc2Cl)n1)Nc1ccccn1 | inconclusive: 15.8 µM [inhibitor, partial curve, poor fit] | 
69 | CC(=O)C(Sc1nn(C)c(=S)s1)C(=O)Nc1ccccc1 (stereo unspecified) | active: 3.55 µM | 
70 | CCCCc1nn2c(=O)cc(COC(=O)C3CCCCC3)nc2s1 | inactive | 
71 | CCC(C)NC(=O)Cn1c(=O)n(-c2ccc(C)c(C)c2)c(=O)c2c3c(sc21)CCCCC3 (stereo unspecified) | inactive | 
72 | Cc1n[nH]c(C)c1N1C(=O)c2cccc3cc(Br)cc(c23)C1=O | inconclusive: 89.1 µM [inhibitor, single point] | 
73 | CCC(CC)C(=O)Nc1ccncc1 | inconclusive: 79.4 µM [inhibitor, single point] | 
74 | N[C@@H](Cc1c[nH]c2ccccc12)C(=O)O | active: 8.44 µM | 
75 | O=C(CCCSc1ccccc1)Nc1nc(-c2ccco2)c(-c2ccco2)s1 | inconclusive: 39.8 µM [inhibitor, single point] | 
76 | C=CCn1c(SC/C=C/c2ccccc2)nnc1-c1sc(N)nc1C | inconclusive: 56.2 µM [inhibitor, partial curve, poor fit] | 
